The values below come from PMC12040169 (PLOS Biology, 2025).

SMILES strings stand for the structures. This is one part of the list.

The test system of the test is T1, C. trachomatis L2/434/Bu expressing GFP (CTL2-GFP).
T1 construct: L2/434/Bu GFP intracellular growth in HeLa cells
Details: species or system HeLa; C. trachomatis total inclusion area by high-content imaging, normalised to DMSO. As to conditions: total inclusion area; 28.5 h, 10 µM; inhibitor. In a few lines:
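Host cell viability was gauged from Hoechst-stained nuclei counts, while chlamydial growth was taken from total inclusion area and inclusion number per well. Cells were fixed and imaged by high-content microscopy once bulk GFP and resorufin fluorescence had been measured.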
Take `O=C(O)C1CCN(c2cncc(-c3ccc4ccccc4c3)n2)CC1` [CBK065801]: the “% of control remaining” value is listed as 103.069.
For the molecule `O=S1(=O)CCN(Cc2ccc3c(c2)OCCCO3)CC1` [CBK074831], the “% of control remaining” value is given as 91.2268.
The figure for `CSc1ncc(Cl)c(C(=O)Nc2nc(-c3ccc(S(=O)(=O)N4CCCCCC4)cc3)cs2)n1` [CBK268785] is 100.068; for `COC(=O)c1cn([C@H]2CO[C@H]3[C@@H]2OC[C@@H]3NC(=O)NC2CCCCC2)nn1` [CBK289499] it is 115.331.
As to `CCOC(=O)COc1cccc(/C=C2/SC(=S)N(c3cccc(C(=O)O)c3)C2=O)c1` [CBK265589], the “% of control remaining” value was determined as 97.9106.
The figure for `Cc1ccccc1C(=O)N1CCC(O)(Cn2ccnc2C)CC1` [CBK284950] is 104.42; for `CCOC(=O)c1cnn2c(O)cc(CN3CCc4ccccc4C3)nc12` [CBK305679] it is 80.1714; for `Cc1ccccc1-c1ccc(C(=O)N(C)CCN(C)C)c(N(C)C)n1` [CBK106090] it is 93.6853.
The figure for `O=S(=O)(Nc1ncc(Br)c2cccnc12)c1ccc(Oc2ccccc2)cc1` [CBK073886] is 90.8996; for `CC(C)(C)OC(=O)NCCCn1cc(C(=O)O)nn1` [CBK287028] it is 90.1745.
As for `COc1ccc(NC(=O)CSc2nc(N)n[nH]2)cc1Cl` [CBK268065], the “% of control remaining” value stood at 92.1852.
Then `CCOC(=O)c1c(NC(=O)C2CCCN2S(=O)(=O)c2ccccc2)sc2c1CCCC2` (stereo not drawn) [CBK265012], with 84.5711; and `O=C(NC1CCCc2c1cnn2Cc1ccccc1)c1ccncc1` (stereo not drawn) [CBK282250], with 96.8293.
Then `O=C(NC(c1ccccc1)c1ccco1)C1CCN(CCN2C(=O)c3ccccc3C2=O)CC1` (stereo not drawn) [CBK148297], with 99.1493; and `CC1(C)NC(=O)N(CC(O)COc2ccc([N+](=O)[O-])cc2)C1=O` (stereo not drawn) [CBK262840], with 90.3511.
The figure for `CCN1C(=O)CC2(C1=O)C(=O)N(CCCOc1ccccc1)c1ccc(OC)cc12` (stereo not drawn) [CBK075585] is 107.019; for `NS(=O)(=O)c1ccc(CCNC(=O)/C=C/c2ccccc2[N+](=O)[O-])cc1` [CBK265709] it is 92.3183; for `Cc1ccc(CN(CCCn2ccnc2)Cc2ccccc2O)o1` [CBK283189] it is 109.899.
For `COc1ccc(C)cc1NC(=O)CN(c1ccc(F)cc1)S(=O)(=O)c1ccc(C)cc1` [CBK264122], the “% of control remaining” value was determined as 88.4176.
Then `CNCCCC1(c2ccccc2)SC(C)(C)c2ccccc21` (stereo not drawn) [CBK015933C], with 18.6703; and `COc1ccc(-c2noc([C@@H]3C[C@@H](O)CN3C3CCOCC3)n2)cc1` [CBK288844], with 113.164; and `CCCNc1cncc(-c2cccc(O)c2)n1` [CBK065447], with 87.2824.
Then `Cc1sc(NC(=S)NC(=O)C2CCCCC2)c(C(N)=O)c1C` [CBK266273], with 99.5585.
As to `CC(C)Nc1cncc(OCCN2CCOCC2)n1` [CBK115599], the “% of control remaining” value was 99.6148.
Then `Cn1c2ccccc2c2cc(C(O)(CC(=O)CC(O)(c3ccc4c(c3)c3ccccc3n4C)C(F)(F)F)C(F)(F)F)ccc21` (stereo not drawn) [CBK262254], with 85.6844; and `COc1ccc2[nH]c3c(c2c1)CCNC31CCN(C(=O)COc2ccccc2)C1` (stereo not drawn) [CBK061661], with 97.7356; and `Cn1nnnc1SCCNCc1ccc2c(c1)n(C)c(=O)n2C` [CBK270080C], with 102.969.
As for `O=C(c1c(F)cccc1F)N1CCC(O)(c2ccccn2)CC1` [CBK283670], the “% of control remaining” value worked out at 75.4142.
Turning to `Cc1nc(CN2CCC(O)(c3ccccc3F)CC2)c2ccccn12` [CBK282799], the “% of control remaining” value is on record as 139.502.
The figure for `O=C(Nc1ccc(S(=O)(=O)N2CCCC2)cc1)C1CC(=O)N(Cc2ccco2)C1` (stereo not drawn) [CBK297500] is 100.122.
On to `O=C1CCCN1CCCNC(=O)C1(c2ccccc2)COc2ccccc21` (stereo not drawn) [CBK017653], for which the “% of control remaining” value was determined as 99.2104.
With `O=c1c2nnc3ncnn3c2ccn1-c1ccccc1` [CBK288075], the “% of control remaining” value came to 83.6219.
On to `CC1CCN(c2nc3nonc3nc2Nc2ccc3c(c2)OCO3)CC1` [CBK077551], for which the “% of control remaining” value is 52.6612.
Then `COC(=O)NC(O)C(=O)c1cccs1` (stereo not drawn) [CBK027755], with 89.6181.
Then `O=S(=O)(NCc1ccccc1)N1CCCCCC1` [CBK269569], with 96.5791; and `O=c1n(-c2cccc(C(F)(F)F)c2)ccn1S(=O)(=O)c1ccc(Cl)c(Cl)c1` [CBK106579], with 98.2979; and `CC1CCCCN1CC(=O)Nc1ccccc1Oc1ccccc1` (stereo not drawn) [CBK023182C], with 69.5726.
In the case of `O=C(CCC1COc2ccccc2O1)Nc1ccc(C(=O)O)cc1` (stereo not drawn) [CBK269856], the “% of control remaining” value amounted to 85.2789.
Then `O=C(Nc1nccs1)c1cccc(Cl)c1Cl` [CBK058011], with 59.2126.
Then `Cc1nccn1CC1(O)CCN(Cc2c[nH]c3ccccc23)CC1` [CBK282671], with 108.16.
Then `COc1ccc(OCC(=O)N/N=C\c2c(OC)ccc3ccccc23)c(Br)c1` [CBK261235], with 76.3948; and `O=C1N=C(NC2CCCCCC2)SC1Cc1ccc(O)cc1` (stereo not drawn) [CBK067868], with 23.0649.
Consider `c1ccc(-c2nc3ccc(Cc4ccc5nc(-c6ccccn6)c(-c6ccccn6)nc5c4)cc3nc2-c2ccccn2)nc1` [CBK261975], for which the “% of control remaining” value is reported as 111.884.
Then `CC(=O)Nc1ccc(S(=O)(=O)NCCCc2ccccc2)cc1` [CBK265488], with 90.2253; and `CC1(C)OCc2nc(C(O)C(C)(C)C)ccc2O1` (stereo not drawn) [CBK005386], with 45.0148.
Then `COc1ccc(OCc2nnn[nH]2)cc1` [CBK270000], with 92.8115; and `CN(C)CCN1C(=O)C(O)=C(C(=O)c2ccco2)C1c1ccc([N+](=O)[O-])cc1` (stereo not drawn) [CBK264486], with 83.4447.
On to `CN(Cc1cc(Br)cs1)C(=O)CCN1C(=O)COc2ccccc21` [CBK298308], for which the “% of control remaining” value is recorded as 84.5812.
The figure for `O=C1CC(C(=O)Nc2ccccc2)n2cnnc2N1` (stereo not drawn) [CBK287980] is 74.9545; for `COc1ccccc1-c1ccccc1CC1(C(=O)NCc2cccc(F)c2)CCOCC1` [CBK286426] it is 93.9765; for `O=C(Cc1cn2ccsc2n1)NCCS(=O)(=O)N1CCc2ccccc21` [CBK304282] it is 89.3517.
`O=[N+]([O-])c1ccc(CN2CCC(Oc3cncc(OCC4COc5ccccc5O4)n3)C2)cc1` (stereo not drawn) [CBK084369]: the “% of control remaining” value is reported as 83.6181.
Regarding `CCN(CC)S(=O)(=O)c1ccc(C)c(C(=O)Oc2cccc(-c3cnc4ccccc4n3)c2)c1` [CBK264577], the “% of control remaining” value was determined as 102.525.
Consider `COc1ccc(-c2cnc3[nH]c(=O)n(CC(C)(C)CO)c3n2)c(OC)c1OC` [CBK064833], for which the “% of control remaining” value came to 125.779.
Take `COCC1(C)NC(=O)N(Cc2nn(-c3ccccc3)c3c2CCC3)C1=O` (stereo not drawn) [CBK306483]: the “% of control remaining” value is recorded as 92.1021.
Consider `CS(=O)(=O)Nc1ccc(C2=NN(S(C)(=O)=O)C(c3ccc4nccnc4c3)C2)cc1` (stereo not drawn) [CBK267546], for which the “% of control remaining” value was 81.5353.
The figure for `COc1cccc(C(=O)N2Cc3ccccc3CC2C(=O)O)c1` (stereo not drawn) [CBK287150] is 119.714; for `Cn1c2c(c(=O)n(C)c1=O)[C@@H]1C(C[C@](O)(COCc3ccccc3)[C@H]1O)C1(CCC1)N2` (stereo partly drawn) [CBK303265] it is 115.015.
Then `O=S(=O)(O)c1ccc(N/N=C/c2cccc(/C=N/Nc3ccc(S(=O)(=O)O)cc3)c2)cc1` [CBK278204N], with 96.222.
For `O=C1/C(=C2/Sc3ccccc3N2CCCS(=O)(=O)O)SC(=S)N1c1ccccc1` [CBK260954G], the “% of control remaining” value came out at 96.0089.
The figure for `O=C(Oc1ccc(N(C(=O)c2ccncc2)S(=O)(=O)c2cccc3cccnc23)cc1)c1ccncc1` [CBK267123] is 115.549; for `Cc1onc(-c2ccccc2)c1NC(=O)Nc1cc2ccccc2c(Br)n1` [CBK105489] it is 100.986; for `COc1ccc(Cl)cc1S(=O)(=O)N1CCC(C(N)=O)(N2CCCCC2)CC1` [CBK269571] it is 93.1649.
Then `O=C(Cc1nn[nH]n1)Nc1ccc(F)c(Cl)c1` [CBK006384], with 99.9893; and `CC(C)[C@H](CO)Nc1nccnc1-c1ccccc1F` [CBK037987], with 83.7271.
Regarding `CCNC(=O)N[C@H]1C[C@@H](Cc2cc(CN(C)C)on2)C1(C)C` [CBK289310], the “% of control remaining” value was found to be 121.361.
Then `CSCC(O)Cn1nc(O)cc(C)c1=O` (stereo not drawn) [CBK006293], with 62.9163; and `COc1ccc(C)cc1S(=O)(=O)n1ccc2c(CNC3CCN(C)CC3)cccc21` [CBK113308T], with 69.4588; and `O=C(c1cccc(NS(=O)(=O)Cc2ccccc2)c1)N1CCOCC1` [CBK038991], with 80.598.
Consider `CCOc1ncccc1NC(=O)N(CC1CCOC1)C1CC1` (stereo not drawn) [CBK305077], for which the “% of control remaining” value stood at 75.054.
`CCOC(=O)c1c(NC(=O)CNCc2cccnc2)sc2c1CCCC2` [CBK304577]: the “% of control remaining” value was found to be 55.6581.
Turning to `Cc1nc(-c2cccnc2)[nH]c(=O)c1CC(=O)N1CCSCC1` [CBK305944], the “% of control remaining” value came to 26.7573.
Take `N#Cc1cccc(NC(=O)CN2CCN(C(=O)C3COc4ccccc4O3)CC2)c1` (stereo not drawn) [CBK074779]: the “% of control remaining” value is 97.5419.
The figure for `CCCCN(C=O)c1c(CC)nc2ccc(C(=O)NCC3CCCCC3)cn12` [CBK145708] is 101.982; for `COC(=O)c1cc(C#N)c(=O)n(CC(=O)Nc2ccc(OC)c(OC)c2)c1` [CBK297926] it is 93.5441.
Then `CN(C)CCO/N=C1\CC2(CCCC2)c2ccc(Cl)cc21` [CBK013334], with 52.9994; and `CCOc1ccc(C2CCCN2S(=O)(=O)c2c[nH]c(=O)[nH]c2=O)cc1` (stereo not drawn) [CBK285806], with 106.975; and `CCCn1c(NCc2cccc(OC)c2O)nc2ccccc21` [CBK133763], with 93.0877.
